B1: SEQ ID NO 915: fusion protein having cucurbitadienol synthase activity (protein)
chain: MSENHVPAVVKTRGSAAPGSGSGSGMWRLKVGKESVGEKEEKWIKSISNHLGRQVWEFCSGENENDDDEAIAVANNSASKFENARNHFRNNRFHRKQSSDLFLAIQCEKEIIRNGAKNEGTTKVKEGEDVKKEAVKNTLERALSFYSAVQTSDGNWASDLGGPMFLLPGLVIALYVTGVLNSVLSKHHRQEMCRYIYNHQNEDGGWGLHIEGSSTMFGSALNYVALRLLGEAADGGEHGAMTKARSWILERGGATAITSWGKLWLSVLGVYEWSGNNPLPPEFWLLPYSLPFHPGRMWCHCRMVYLPMSYLYGKRFVGPITPIVLSLRKELYTIPYHEIDWNRSRNTCAKEDLYYPHPKMQDILWGSIYHVYEPLFSGWPGKRLREKAMKIAMEHIHYEDENSRYICLGPVNKVLNMLCCWVEDPYSDAFKFHLQRIPDYLWLAEDGMRMQGYNGSQLWDTAFSIQAIISTKLIDTFGPTLRKAHHFVKHSQIQEDCPGDPNVWFRHIHKGAWPFSTRDHGWLISDCTAEGLKASLMLSKLPSKIVGEPLEKNRLCDAVNVLLSLQNENGGFASYELTRSYPWLELINPAETFGDIVIDYSYVECTSATMEALALFKKLHPGHRTKEIDAAIAKAANFLENMQKTDGSWYGCWGVCFTYAGWFGIKGLVAAGRTYNNCVAIRKACNFLLSKELPGGGWGESYLSCQNKVYTNLEGNKPHLVNTAWVMMALIEAGQGERDPAPLHRAARLLINSQLESGDFPQQEIMGVFNKNCMITYAAYRNIFPIWALGEYSHRVLDM
modifications: SS3e-E7 Full gene NT Seq Full gene NT Seq
B2: SEQ ID NO 920: fusion protein having cucurbitadienol synthase activity (protein)
chain: MTTQQEELDVGDSEGSAAPGSGSGSGMWRLKVGKESVGEKEEKWIKSISNHLGRQVWEFCSGENENDDDEAIAVANNSASKFENARNHFRNNRFHRKQSSDLFLAIQCEKEIIRNGAKNEGTTKVKEGEDVKKEAVKNTLERALSFYSAVQTSDGNWASDLGGPMFLLPGLVIALYVTGVLNSVLSKHHRQEMCRYIYNHQNEDGGWGLHIEGSSTMFGSALNYVALRLLGEAADGGEHGAMTKARSWILERGGATAITSWGKLWLSVLGVYEWSGNNPLPPEFWLLPYSLPFHPGRMWCHCRMVYLPMSYLYGKRFVGPITPIVLSLRKELYTIPYHEIDWNRSRNTCAKEDLYYPHPKMQDILWGSIYHVYEPLFSGWPGKRLREKAMKIAMEHIHYEDENSRYICLGPVNKVLNMLCCWVEDPYSDAFKFHLQRIPDYLWLAEDGMRMQGYNGSQLWDTAFSIQAIISTKLIDTFGPTLRKAHHFVKHSQIQEDCPGDPNVWFRHIHKGAWPFSTRDHGWLISDCTAEGLKASLMLSKLPSKIVGEPLEKNRLCDAVNVLLSLQNENGGFASYELTRSYPWLELINPAETFGDIVIDYSYVECTSATMEALALFKKLHPGHRTKEIDAAIAKAANFLENMQKTDGSWYGCWGVCFTYAGWFGIKGLVAAGRTYNNCVAIRKACNFLLSKELPGGGWGESYLSCQNKVYTNLEGNKPHLVNTAWVMMALIEAGQGERDPAPLHRAARLLINSQLESGDFPQQEIMGVFNKNCMITYAAYRNIFPIWALGEYSHRVLDM
modifications: SS3d-G5 Full Gene AA seq
B3: SEQ ID NO 924: fusion protein having cucurbitadienol synthase activity (protein)
chain: MEDGKQAISEGSAAPGSGSGSGMWRLKVGKESVGEKEEKWIKSISNHLGRQVWEFCSGENENDDDEAIAVANNSASKFENARNHFRNNRFHRKQSSDLFLAIQCEKEIIRNGAKNEGTTKVKEGEDVKKEAVKNTLERALSFYSAVQTSDGNWASDLGGPMFLLPGLVIALYVTGVLNSVLSKHHRQEMCRYIYNHQNEDGGWGLHIEGSSTMFGSALNYVALRLLGEAADGGEHGAMTKARSWILERGGATAITSWGKLWLSVLGVYEWSGNNPLPPEFWLLPYSLPFHPGRMWCHCRMVYLPMSYLYGKRFVGPITPIVLSLRKELYTIPYHEIDWNRSRNTCAKEDLYYPHPKMQDILWGSIYHVYEPLFSGWPGKRLREKAMKIAMEHIHYEDENSRYICLGPVNKVLNMLCCWVEDPYSDAFKFHLQRIPDYLWLAEDGMRMQGYNGSQLWDTAFSIQAIISTKLIDTFGPTLRKAHHFVKHSQIQEDCPGDPNVWFRHIHKGAWPFSTRDHGWLISDCTAEGLKASLMLSKLPSKIVGEPLEKNRLCDAVNVLLSLQNENGGFASYELTRSYPWLELINPAETFGDIVIDYSYVECTSATMEALALFKKLHPGHRTKEIDAAIAKAANFLENMQKTDGSWYGCWGVCFTYAGWFGIKGLVAAGRTYNNCVAIRKACNFLLSKELPGGGWGESYLSCQNKVYTNLEGNKPHLVNTAWVMMALIEAGQGERDPAPLHRAARLLINSQLESGDFPQQEIMGVFNKNCMITYAAYRNIFPIWALGEYSHRVLDM
modifications: SS3c-G8 Full Gene AA seq
B4: SEQ ID NO 928: fusion protein having cucurbitadienol synthase activity (protein)
chain: MTIGDKLKKKLGSAAPGSGSGSGMWRLKVGKESVGEKEEKWIKSISNHLGRQVWEFCSGENENDDDEAIAVANNSASKFENARNHFRNNRFHRKQSSDLFLAIQCEKEIIRNGAKNEGTTKVKEGEDVKKEAVKNTLERALSFYSAVQTSDGNWASDLGGPMFLLPGLVIALYVTGVLNSVLSKHHRQEMCRYIYNHQNEDGGWGLHIEGSSTMFGSALNYVALRLLGEAADGGEHGAMTKARSWILERGGATAITSWGKLWLSVLGVYEWSGNNPLPPEFWLLPYSLPFHPGRMWCHCRMVYLPMSYLYGKRFVGPITPIVLSLRKELYTIPYHEIDWNRSRNTCAKEDLYYPHPKMQDILWGSIYHVYEPLFSGWPGKRLREKAMKIAMEHIHYEDENSRYICLGPVNKVLNMLCCWVEDPYSDAFKFHLQRIPDYLWLAEDGMRMQGYNGSQLWDTAFSIQAIISTKLIDTFGPTLRKAHHFVKHSQIQEDCPGDPNVWFRHIHKGAWPFSTRDHGWLISDCTAEGLKASLMLSKLPSKIVGEPLEKNRLCDAVNVLLSLQNENGGFASYELTRSYPWLELINPAETFGDIVIDYSYVECTSATMEALALFKKLHPGHRTKEIDAAIAKAANFLENMQKTDGSWYGCWGVCFTYAGWFGIKGLVAAGRTYNNCVAIRKACNFLLSKELPGGGWGESYLSCQNKVYTNLEGNKPHLVNTAWVMMALIEAGQGERDPAPLHRAARLLINSQLESGDFPQQEIMGVFNKNCMITYAAYRNIFPIWALGEYSHRVLDM
modifications: SS3c-E5Full Gene AA seq
B5: SEQ ID NO 932: fusion protein having cucurbitadienol synthase activity (protein)
chain: MWRLKVGKESVGEKEEKWIKSISNHLGRQVWEFCSGENENDDDEAIAVANNSASKFENARNHFRNNRFHRKQSSDLFLAIQCEKEIIRNGAKNEGTTKVKEGEDVKKEAVKNTLERALSFYSAVQTSDGNWASDLGGPMFLLPGLVIALYVTGVLNSVLSKHHRQEMCRYIYNHQNEDGGWGLHIEGSSTMFGSALNYVALRLLGEAADGGEHGAMTKARSWILERGGATAITSWGKLWLSVLGVYEWSGNNPLPPEFWLLPYSLPFHPGRMWCHCRMVYLPMSYLYGKRFVGPITPIVLSLRKELYTIPYHEIDWNRSRNTCAKEDLYYPHPKMQDILWGSIYHVYEPLFSGWPGKRLREKAMKIAMEHIHYEDENSRYICLGPVNKVLNMLCCWVEDPYSDAFKFHLQRIPDYLWLAEDGMRMQGYNGSQLWDTAFSIQAIISTKLIDTFGPTLRKAHHFVKHSQIQEDCPGDPNVWFRHIHKGAWPFSTRDHGWLISDCTAEGLKASLMLSKLPSKIVGEPLEKNRLCDAVNVLLSLQNENGGFASYELTRSYPWLELINPAETFGDIVIDYSYVECTSATMEALALFKKLHPGHRTKEIDAAIAKAANFLENMQKTDGSWYGCWGVCFTYAGWFGIKGLVAAGRTYNNCVAIRKACNFLLSKELPGGGWGESYLSCQNKVYTNLEGNKPHLVNTAWVMMALIEAGQGERDPAPLHRAARLLINSQLESGDFPQQEIMGVFNKNCMITYAAYRNIFPIWALGEYSHRVLDMGSAAPGSGSGSGMMLEPSP
modifications: SS2c-E2 Full Gene AA seq
B6: SEQ ID NO 936: fusion protein having cucurbitadienol synthase activity (protein)
chain: MWRLKVGKESVGEKEEKWIKSISNHLGRQVWEFCSGENENDDDEAIAVANNSASKFENARNHFRNNRFHRKQSSDLFLAIQCEKEIIRNGAKNEGTTKVKEGEDVKKEAVKNTLERALSFYSAVQTSDGNWASDLGGPMFLLPGLVIALYVTGVLNSVLSKHHRQEMCRYIYNHQNEDGGWGLHIEGSSTMFGSALNYVALRLLGEAADGGEHGAMTKARSWILERGGATAITSWGKLWLSVLGVYEWSGNNPLPPEFWLLPYSLPFHPGRMWCHCRMVYLPMSYLYGKRFVGPITPIVLSLRKELYTIPYHEIDWNRSRNTCAKEDLYYPHPKMQDILWGSIYHVYEPLFSGWPGKRLREKAMKIAMEHIHYEDENSRYICLGPVNKVLNMLCCWVEDPYSDAFKFHLQRIPDYLWLAEDGMRMQGYNGSQLWDTAFSIQAIISTKLIDTFGPTLRKAHHFVKHSQIQEDCPGDPNVWFRHIHKGAWPFSTRDHGWLISDCTAEGLKASLMLSKLPSKIVGEPLEKNRLCDAVNVLLSLQNENGGFASYELTRSYPWLELINPAETFGDIVIDYSYVECTSATMEALALFKKLHPGHRTKEIDAAIAKAANFLENMQKTDGSWYGCWGVCFTYAGWFGIKGLVAAGRTYNNCVAIRKACNFLLSKELPGGGWGESYLSCQNKVYTNLEGNKPHLVNTAWVMMALIEAGQGERDPAPLHRAARLLINSQLESGDFPQQEIMGVFNKNCMITYAAYRNIFPIWALGEYSHRVLDMGSAAPGSGSGSGMNSNEDIIPEL
modifications: SS2c-A10b Full Gene AA seq

Tested on: cucurbitadienol synthase activity
Assay: Cucurbitadienol synthase activities of fusion proteins in yeast strain with oxidosqualene boost, LCMS
Type: cell-based, S. cerevisiae
Conditions: average % activities over the average activities of the parent enzyme (Cucumis melo cucurbitadienol synthase)
Procedure: For analyzing cucurbitadienol, the first LCMS method included the use of C4 2.1×100 mm column, gradient 1 to 95% B for 6 minutes, and at flow rate of 0.55 ml/min; and the second LCMS method included the use of Waters Acquity UPLC Protein BEH C4 2.1×100 […], 1.7 μm, with guard, 62 to 67% B for 2 min, 100% B for 1 min, and at flow rate of 0.9 ml/min and ESI source positive single ion monitoring of 427 and 409.
The gene encoding for a cucurbitadienol synthase form Cucumis melo was codon optimized (SEQ ID: 907) and used as a starting point for generating a library of modifications. Modifications were introduced through standard molecular biology techniques consisting of fusion peptides at the N-terminus (i.e., 5′) or C-terminus (i.e., 3′) end of the enzyme. Plasmids libraries of modified cucurbitadienol synthase genes were transformed into a yeast strain with oxidosqualene boost. Enzyme activities were measured by ratios of peak heights or areas of 409 and 427 positive mass fragments at the expected retention times for cucurbitadienol vs. an internal standard using LCMS method 2 described above. Enzyme performance were scored as average % activities over the average activities of the parent enzyme (n=8). Step 1 sequences of the enzymes and the sequences that encode the enzyme can be found in SEQ ID NOs: 951-1012. Step 1 sequence also include the fusions SS2c-G10, SS2e-A7b, SS2d-G11. SS2e-A7a, SS4d-G5, SS4d-C7, SS3b-D8, and SS2c-A10a are disclosed herein.
A collection or library of S. cerevisiae in-frame fusion polynucleotdies for a cucurbitadienol synthase gene (DNA coding sequence provided in SEQ ID NO: 907, and protein sequence provided in SEQ ID NO: 902) was prepared. The in-frame fusion polynucleotides were cloned into a yeast vector molecule to generate fusion proteins.
Various fusion proteins were generated and tested for cucurbitadienol synthase activities.

Molecule	Activity (as compared to the parent) [%]
B1	124
B2	124
B3	121
B4	117
B5	128
B6	126

Reference: patent US12286661B2, “Methods for making high intensity sweeteners” (Firmenich Incorporated, priority 2018, dated 2025)
